For the data set the following is noted: Gallus gallus, 25 °C, Thermal, DSC, glycine 0.04 M, reversible: yes(>90%).

Take Lysozyme C wild type (letters omitted): the unfolding free energy reads like this: (pH 1) 9.01 kcal/mol; (pH 7) 17.6 kcal/mol.

The record behind these values is FireProtDB (doi:10.1016/0022-2836(74)90188-0).
